Source: PubChem BioAssay AID588591 (National Center for Advancing Translational Sciences (NCATS), 2011)
The whole screen tested about 390,000 compounds, of which about 4,700 (1.2%) were called active. This list was built around the results that the source calls inconclusive (neither active nor inactive); the mix of calls is not that of the screen. Calls come from the whole dose curve; as a rule, active = well fitted inhibition curve with a large enough effect; inconclusive = small, poorly fitted or top-dose-only effect, or another doubt; inactive = no such curve, though single readings can be large or run the other way. Potencies beside an inconclusive call are fits to weak or partial responses and may not hold up.

Molecular target: DNA polymerase eta (Homo sapiens) (UniProt Q9Y253)
Test: qHTS for Inhibitors of Polymerase Eta
Conditions: recombinant Pol eta, fluorescent DNA replication assay; series mostly up to 114 µM; activity change, negative = inhibition: at the top concentration
Procedure, shortened: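 Pol eta at 10 nM preincubated with compounds 15 min at room temperature; reaction started with fluorescent substrate (50 nM final) and read kinetically at 0 and 10 min.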
% is set by controls: 0 for no effect and ±100 for the full control effect; potency is the fitted concentration of half-maximal effect; tags give direction and shape of the fitted curve.

Chain of UniProt Q9Y253 (Q9Y253 whole entry, looked up): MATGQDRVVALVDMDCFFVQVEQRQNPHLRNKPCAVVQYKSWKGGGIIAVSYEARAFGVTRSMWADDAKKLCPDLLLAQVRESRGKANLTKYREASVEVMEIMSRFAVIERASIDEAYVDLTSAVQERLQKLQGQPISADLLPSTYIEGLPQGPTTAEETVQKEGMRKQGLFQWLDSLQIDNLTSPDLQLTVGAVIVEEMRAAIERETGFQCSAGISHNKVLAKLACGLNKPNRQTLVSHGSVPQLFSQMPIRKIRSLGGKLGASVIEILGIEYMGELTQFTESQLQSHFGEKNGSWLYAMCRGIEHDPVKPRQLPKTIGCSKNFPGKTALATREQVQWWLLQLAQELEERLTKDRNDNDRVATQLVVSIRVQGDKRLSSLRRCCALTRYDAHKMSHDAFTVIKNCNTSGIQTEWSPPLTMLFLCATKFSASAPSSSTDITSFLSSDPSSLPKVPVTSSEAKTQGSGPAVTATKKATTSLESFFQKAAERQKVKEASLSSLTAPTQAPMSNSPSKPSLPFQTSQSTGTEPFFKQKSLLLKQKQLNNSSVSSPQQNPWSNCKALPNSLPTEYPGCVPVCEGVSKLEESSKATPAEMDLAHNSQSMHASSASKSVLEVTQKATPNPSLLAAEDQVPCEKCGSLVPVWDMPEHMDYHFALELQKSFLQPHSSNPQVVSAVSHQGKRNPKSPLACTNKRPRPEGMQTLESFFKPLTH

Structure (SMILES) | Potency | activity change, negative = inhibition
CSCCC(NC(=O)/C(=C\c1ccco1)NC(=O)c1ccco1)C(=O)O (centres undefined) | inconclusive: 31.6 µM [inhibitor, partial curve, poor fit] | –
OC(COc1ccc(Cl)c2ccccc12)CN1CCN(c2ccccn2)CC1 (centres undefined) | inconclusive: 39.8 µM [inhibitor, single point] | –
CC(C)Cn1c(N)c(C(=O)COC(=O)c2cc(-c3ccco3)nc3ccccc23)c(=O)n(C)c1=O | active: 17.8 µM | –
Cc1cc(=O)oc2ccc(OC(=O)CN3C(=O)c4cccc([N+](=O)[O-])c4C3=O)cc12 | inconclusive: 28.2 µM [inhibitor, single point] | –
COc1ccc(C(c2nnnn2C2CCCC2)N2CCc3ccccc3C2)cc1OC (centres undefined) | inconclusive: 20 µM [inhibitor, partial curve, poor fit] | –
COc1cc2c(cc1OC)/C(=C/c1ccc(Br)cc1)C(=O)OC2 | inconclusive: 25.1 µM [inhibitor, partial curve, poor fit] | –
Cc1ccc(S(=O)(=O)NNC(=O)c2ccncc2)cc1[N+](=O)[O-] | inconclusive: 35.5 µM [inhibitor, partial curve, poor fit] | –
CCOc1ccc(NC(=O)CSc2nnc(-c3ccccc3)n2N)cc1 | inconclusive: 31.6 µM [inhibitor, single point] | –
CCc1nc(N)nc(N)c1-c1ccc(N(C)Cc2ccccc2)c([N+](=O)[O-])c1 | inconclusive: 5.62 µM [inhibitor, full curve, poor fit] | –
O=C(O)c1ccc(N/N=C/c2ccc(-c3ccccc3Cl)o2)cc1 | inconclusive: 44.7 µM [inhibitor, partial curve, poor fit] | –
COc1ccc(/C=C2\C(=O)ON=C2c2ccccc2)cc1 | – | inactive: 9.56%
CN(c1ccccc1)S(=O)(=O)c1cccc(C(=O)OCC(=O)NCCCN2CCCC2=O)c1 | inconclusive: 39.8 µM [inhibitor, single point] | –
CSc1ccccc1NC(=O)c1cc(-c2cccnc2)nc2ccc(Br)cc12 | inconclusive: 15.8 µM [inhibitor, full curve, poor fit] | –
CN(CC(=O)Nc1cccc(F)c1)C(=O)/C=C/c1cn(Cc2ccccc2)nc1-c1cccnc1 | inconclusive: 44.7 µM [inhibitor, partial curve, poor fit] | –
Cc1ccc(C(=O)NCc2occc2C(=O)O)o1 | active: 28.2 µM | –
CSc1ccc(Cl)c(C(=O)NCc2ccco2)c1 | inconclusive: 31.6 µM [inhibitor, partial curve, poor fit] | –
CCSc1nc(-c2ccccc2)c(C#N)c(=O)[nH]1 | – | inactive: -3.78%
CCCn1c(N)c(NCCN2CCOCC2)c(=O)n(CC(=O)NCc2ccccc2)c1=O | – | inactive: -1.39%
COc1cccc2cc(C(=O)CS(=O)(=O)c3ccc(Cl)cc3)c(=O)oc12 | inconclusive: 79.4 µM [inhibitor, partial curve] | –
CC(=O)Nc1ccc(C=NNc2nnc(NN=Cc3ccc(NC(C)=O)cc3)c3ccccc23)cc1 | inconclusive: 56.2 µM [inhibitor, partial curve, poor fit] | –
Cc1cccc(N(C)S(=O)(=O)c2ccc3c(c2)C(C)(C)C(=O)N3C)c1 | inconclusive: 20 µM [inhibitor, full curve] | –
CCCC1=Nc2cc(C(=O)NC(C)c3ccccc3)ccc2Sc2ccc(C)cc21 (centres undefined) | – | inactive: -10.2%

Structure (SMILES) | Potency | activity change, negative = inhibition
O=C(CSc1nc(C2CC2)nc2ccccc12)N1c2ccccc2Sc2ccc(C(F)(F)F)cc21 | inconclusive: 79.4 µM [inhibitor, partial curve, poor fit] | –
Cc1cccc2cc(/C=N/NC(=O)c3ccccc3O)c(Cl)nc12 | inconclusive: 25.1 µM [inhibitor, full curve, poor fit] | –
COc1ccc(OC)c(CCNC(=O)c2ccc3c(=O)[nH]c4c(C(=O)NC(C)C)sc(=S)n4c3c2)c1 | active: 15.8 µM | –
Cc1nnc(-c2cccc(Br)c2)c2cn(-c3ccccc3)nc12 | – | inactive: -0.924%
CC1CCCCN1C(=O)Cn1c(SCC(=O)N(C)c2ccccc2)nc2ccccc21 (centres undefined) | – | inactive: -7.31%
CCn1cc2nc(SCC(=O)Nc3ccc(C)cc3C)n(Cc3ccc(C)cc3)c(=O)c2n1 | active: 79.4 µM | –
CCOc1ccc(C(C(=O)NC2CCCC2)N(Cc2ccccc2)C(=O)c2nsc(Cl)c2Cl)cc1 (centres undefined) | inconclusive: 0.891 µM [inhibitor, partial curve, poor fit] | –
Cc1ccc(SCC(=O)Nc2ccc(S(=O)(=O)Nc3ncccn3)cc2)cc1 | inconclusive: 50.1 µM [inhibitor, partial curve, poor fit] | –
COc1cc(/C=N/NC(=O)c2cc(C3CC3)[nH]n2)ccc1O | – | inactive: -12.8%
COc1cccc(-c2ccc3nnc(SCC(=O)Nc4ccc(NC(C)=O)cc4)n3n2)c1 | inconclusive: 56.2 µM [inhibitor, partial curve, poor fit] | –
O=C(N/N=C/c1ccc(-c2cccc([N+](=O)[O-])c2)o1)c1ccccc1O | active: 50.1 µM | –
Cc1ccc(-n2c(=O)[nH]c3c(C(N)=O)nc(-c4ccc(C)o4)nc32)cc1 | inconclusive: 20 µM [inhibitor, full curve, poor fit] | –
CC(/C=N/NC(=O)Cn1nccc1C)=C\c1ccc(C(C)C)cc1 | inconclusive: 50.1 µM [inhibitor, partial curve, poor fit] | –
Cc1cccc(C)c1OCc1cc(C(=O)N2CCC(c3ccncc3)CC2)no1 | – | inactive: -24%
Cc1ccc(/C=C2/C(=O)ON=C2c2ccccc2)o1 | active: 35.5 µM | –
O=C(CCS(=O)(=O)c1ccccc1)Nc1nc2ccc(F)cc2s1 | – | inactive: -9.31%
COc1ccc2cnnc(SCC(=O)Nc3ccc(C(=O)O)cc3)c2c1OC | inconclusive: 25.1 µM [inhibitor, partial curve, poor fit] | –
COc1ccccc1NS(=O)(=O)c1ccc(C(=O)OCC(=O)NCc2ccco2)cc1 | inconclusive: 25.1 µM [inhibitor, single point] | –
CC(C)C(NC(=O)c1ccco1)C(=O)OCC(=O)NCCc1ccccc1 (centres undefined) | – | inactive: 2.56%
Cc1cccc(NC(=O)CSc2nc(-c3ccco3)nc3cc(=O)[nH]n23)c1 | inconclusive: 89.1 µM [inhibitor, single point] | –
CSc1ccc(CN(C)CC(=O)NC(C)c2ccccc2)cc1 (centres undefined) | inconclusive: 39.8 µM [inhibitor, single point] | –
O=C(CNC(=O)c1ccc([N+](=O)[O-])cc1)N/N=C/c1c[nH]c2ccccc12 | inconclusive: 2.82 µM [inhibitor, full curve, poor fit] | –

Structure (SMILES) | Potency | activity change, negative = inhibition
CCN(C(=O)c1ccc(S(C)(=O)=O)cc1)C12CC3CC(CC(C3)C1)C2 | inconclusive: 89.1 µM [inhibitor, partial curve, poor fit] | –
Cc1ccc(Cl)cc1N1CCN(C(=O)CCC(=O)Nc2ccc3nc(N4CCC(C)CC4)cc(C)c3c2)CC1 | inconclusive: 89.1 µM [inhibitor, partial curve] | –
CC(=O)c1ccc(S(=O)(=O)Nc2cccc(-c3ccc(N4CCCCC4)nn3)c2)cc1 | inconclusive: 89.1 µM [inhibitor, partial curve] | –
CC(C)C(NC(=O)OCc1ccccc1)C(=O)OCC(=O)NCc1ccco1 (centres undefined) | active: 8.91 µM | –
CC1=C(C(=O)OC(C)C)[C@@H](c2ccc(C)o2)NC(=O)N1 | active: 1.12 µM | –
Cc1ccc(N2C(=O)[C@@H]3[C@H](C2=O)C2c4ccccc4C=CN2[C@@H]3C(=O)c2ccco2)cc1 (some centres undefined) | inconclusive: 20 µM [inhibitor, full curve] | –
C#CCn1cc(C=C2C(=O)c3ccccc3C2=O)c2ccccc21 | inconclusive: 28.2 µM [inhibitor, partial curve, poor fit] | –
COc1ccc(NC(=O)C(=O)NNC(=O)COc2ccc(OC)cc2)cc1 | – | inactive: -6.88%
Cc1ccc(C)c(N2CCN(CCCNC(=O)Cn3ncc4c5ccccc5n(C)c4c3=O)CC2)c1 | – | inactive: -22.5%
CCCCC(=O)Nc1ccc(C(=O)NNC(=O)CCc2ccccc2)cc1 | – | inactive: -10.9%
O=C(CN1C(=O)c2ccccc2C1=O)Nc1cc(C(=O)O)cc(C(=O)O)c1 | – | inactive: -2.77%
Cc1ccc(-n2c(O)c(C=Nc3ccccc3-c3n[nH]c(=S)[nH]c3=O)c3ccccc3c2=O)c(C)c1 | inconclusive: 89.1 µM [inhibitor, single point] | –
O=C(NCCc1ccccc1)/C(=C/c1ccco1)c1ccccc1 | inconclusive: 39.8 µM [inhibitor, single point] | –
CCc1cc2c(=O)c(-c3nc4ccccc4[nH]3)coc2c(CN2CCCCC2)c1O | inconclusive: 44.7 µM [inhibitor, partial curve, poor fit] | –
COc1ccc(-n2c(SCc3ccc([N+](=O)[O-])cc3)nnc2-c2ccccc2)cc1 | inconclusive: 39.8 µM [inhibitor, partial curve, poor fit] | –
O=C1C=CC(O)(c2cc(=O)c3c(O)cc(O)cc3o2)C=C1 | inconclusive: 56.2 µM [inhibitor, partial curve, poor fit] | –
CCOC(=O)c1c(S(=O)(=O)N2CCCC(C(=O)N3CCN(c4cccc(C)c4C)CC3)C2)c(C)n(C)c1C (centres undefined) | – | inactive: -8.11%
O=c1c2ccccc2nc2ccc(NCc3ccco3)nn12 | inconclusive: 15.8 µM [inhibitor, partial curve, poor fit] | –
CCOc1ccc(NS(=O)(=O)c2ccc(NC(=O)C3CC3)cc2)cc1 | inconclusive: 89.1 µM [inhibitor, partial curve, poor fit] | –
COc1ccc(-n2nnc3c(SCC(=O)NCc4ccco4)ncnc32)cc1 | inconclusive: 31.6 µM [inhibitor, partial curve, poor fit] | –
